# Measured values: the supplement of paper PMC4604168 (melanoma cell lines)
# This is one part of the list. Repeats are few or missing, and single values can be far off.
# What was measured:
# Assay in all cases: cell count relative to DMSO control; melanoma cells; higher = more viable cells
# Conditions in all cases: library dose: standard library concentration; 72 h
# [1] = test system: G361
# [2] = test system: IPC-298
# [3] = test system: IST-MEL1
# [4] = test system: LB2518-MEL
# [5] = test system: LOXIMVI
# [6] = test system: MEL-HO
# [7] = test system: MZ2-MEL
# [8] = test system: MeWo
# [9] = test system: RPMI7951
# [10] = test system: RVH-421
# 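Also: cells treated in 1,536-well plates, then fixed and DAPI-stained, with nuclei counted from automated high-throughput microscope images.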
Structure (SMILES),cell count [1],cell count [2],cell count [3],cell count [4],cell count [5],cell count [6],cell count [7],cell count [8],cell count [9],cell count [10]
"Cn1c(Nc2ccc(C(F)(F)F)cc2)nc2cc(Oc3ccnc(-c4ncc(C(F)(F)F)[nH]4)c3)ccc21 + CCN(CC)CCCCNc1ncc2cc(-c3cc(OC)cc(OC)c3)c(NC(=O)NC(C)(C)C)nc2n1 [PD173074] (first compound 0.4 µM, partner dose 0.5 µM)",30.3%,60.9%,86.3%,35.4%,64.6%,66%,65.4%,57.7%,43.5%,55.9%
"Clc1ccc(Nc2nnc(Cc3ccncc3)c3ccccc23)cc1 [vatalanib] + O=c1cc(-c2cccc3c2Sc2ccccc2S3)oc(N2CCOCC2)c1 [KU55933] (first compound 10 µM, partner dose 5 µM)",41.6%,60.8%,73.1%,68.9%,76.3%,57.5%,78.6%,55.5%,69.1%,69.3%
"Clc1ccc(Nc2nnc(Cc3ccncc3)c3ccccc23)cc1 [vatalanib] + N#Cc1c(O)c2c(-c3ccc(-c4ccccc4O)cc3)csc2[nH]c1=O [A769662] (first compound 10 µM, partner dose 10 µM)",87.1%,86.3%,83.3%,84.3%,86.9%,79.5%,90.4%,70.7%,80.6%,16%
"C#Cc1cccc(Nc2ncnc3cc(OCCOC)c(OCCOC)cc23)c1 [erlotinib] + CN(C)S(=O)(=O)c1ccc2c(c1)/C(=C/c1cc3c([nH]1)CCCC3)C(=O)N2 [SU6656] (first compound 4 µM, partner dose 2 µM)",60.9%,60.8%,68.1%,50.6%,82.6%,75.1%,76.4%,62.8%,37.5%,63.1%
"C#Cc1cccc(Nc2ncnc3cc(OCCOC)c(OCCOC)cc23)c1 [erlotinib] + NCC(=O)Nc1ccc(-n2nc(C(F)(F)F)cc2-c2ccc3c(ccc4ccccc43)c2)cc1 [OSU03012] (first compound 4 µM, partner dose 5 µM)",58.1%,52%,73.6%,65.5%,53%,69.5%,67.8%,60.2%,58.9%,77.5%
"O=C(CCCCCCC(=O)Nc1ccccc1)NO [vorinostat] + O=C1NC(=O)/C(=C/c2ccc(-c3ccc(F)cc3O)o2)S1 [AS252424] (first compound 0.4 µM, partner dose 5 µM)",52.3%,72.6%,90.2%,75.5%,70.7%,71.8%,90.6%,75.1%,73.5%,77.4%
"Clc1ccc(Nc2nnc(Cc3ccncc3)c3ccccc23)cc1 [vatalanib] + c1cc(-c2cnn3cc(-c4ccc(OCCN5CCCCC5)cc4)cnc23)ccn1 [Dorsomorphin] (first compound 10 µM, partner dose 2 µM)",35.8%,62.1%,73.9%,52.8%,76%,67.2%,10.7%,51.1%,44%,73%
"Cn1c(Nc2ccc(C(F)(F)F)cc2)nc2cc(Oc3ccnc(-c4ncc(C(F)(F)F)[nH]4)c3)ccc21 + OCCn1cc(-c2cnc3nnn(Cc4ccc5ncccc5c4)c3n2)cn1 [PF04217903] (first compound 0.4 µM, partner dose 5 µM)",31.9%,48.3%,73.7%,41.9%,65.4%,69%,82.4%,81.2%,59.4%,52.3%
"Nc1cccc2c1CN(C1CCC(=O)NC1=O)C2=O (stereo not given) [lenalidomide] + COc1ccc(-c2ccc3c(N4CCOCC4)nc(N4C[C@@H](C)O[C@@H](C)C4)nc3n2)cc1CO [KU0063794] (first compound 5 µM, partner dose 0.1 µM)",73.9%,75.3%,89.1%,74.4%,88%,83.1%,83.5%,80.3%,100%,68.7%
"COCC[n+]1c2c(n(Cc3cnccn3)c1C)C(=O)c1ccccc1C2=O + OCCn1cc(-c2cnc3nnn(Cc4ccc5ncccc5c4)c3n2)cn1 [PF04217903] (first compound 0.002 µM, partner dose 5 µM)",69.4%,66%,115%,27.9%,51.5%,104%,39.2%,50.5%,29.7%,16.4%
"COCC[n+]1c2c(n(Cc3cnccn3)c1C)C(=O)c1ccccc1C2=O + N#Cc1c(O)c2c(-c3ccc(-c4ccccc4O)cc3)csc2[nH]c1=O [A769662] (first compound 0.002 µM, partner dose 10 µM)",84.5%,64.1%,44.4%,51%,101%,97.8%,44.6%,96.1%,37%,110%
